T1: human high affinity trimeric IL-2 receptor (CD25/CD122/CD132) (human, UniProt P01589 22-272; P14784 27-551; P31785 23-369)
T1 sequence 1: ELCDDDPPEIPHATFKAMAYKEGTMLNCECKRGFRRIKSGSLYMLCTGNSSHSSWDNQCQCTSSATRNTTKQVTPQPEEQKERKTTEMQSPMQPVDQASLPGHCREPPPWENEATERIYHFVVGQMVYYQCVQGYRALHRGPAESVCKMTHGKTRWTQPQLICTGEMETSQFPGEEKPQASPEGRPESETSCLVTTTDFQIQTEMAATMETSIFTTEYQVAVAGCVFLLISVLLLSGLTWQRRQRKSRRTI
T1 sequence 2: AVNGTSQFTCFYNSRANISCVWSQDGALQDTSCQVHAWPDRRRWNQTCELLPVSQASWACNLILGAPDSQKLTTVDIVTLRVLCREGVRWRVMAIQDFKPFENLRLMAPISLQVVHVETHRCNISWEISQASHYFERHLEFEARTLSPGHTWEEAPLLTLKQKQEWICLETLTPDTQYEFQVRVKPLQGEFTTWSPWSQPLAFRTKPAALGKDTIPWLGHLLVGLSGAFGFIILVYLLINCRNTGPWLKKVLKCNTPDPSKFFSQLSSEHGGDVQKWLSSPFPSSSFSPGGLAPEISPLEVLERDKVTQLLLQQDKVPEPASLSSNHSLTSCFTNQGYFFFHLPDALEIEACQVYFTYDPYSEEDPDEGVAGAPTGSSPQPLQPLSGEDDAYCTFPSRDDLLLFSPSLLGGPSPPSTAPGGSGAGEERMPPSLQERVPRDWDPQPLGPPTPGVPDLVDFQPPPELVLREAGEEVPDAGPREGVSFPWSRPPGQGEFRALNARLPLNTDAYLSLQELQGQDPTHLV
T1 sequence 3: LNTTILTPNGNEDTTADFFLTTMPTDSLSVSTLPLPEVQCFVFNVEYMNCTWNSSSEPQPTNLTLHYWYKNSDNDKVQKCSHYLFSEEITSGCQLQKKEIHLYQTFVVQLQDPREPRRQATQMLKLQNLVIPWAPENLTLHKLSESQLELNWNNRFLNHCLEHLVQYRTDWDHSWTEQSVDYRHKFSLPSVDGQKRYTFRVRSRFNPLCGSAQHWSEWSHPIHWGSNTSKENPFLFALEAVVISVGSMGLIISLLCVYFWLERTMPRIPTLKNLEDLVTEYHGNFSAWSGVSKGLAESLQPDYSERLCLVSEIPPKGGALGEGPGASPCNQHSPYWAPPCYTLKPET

B1: huIL2 L18R (R--) (ligand)
cytokine: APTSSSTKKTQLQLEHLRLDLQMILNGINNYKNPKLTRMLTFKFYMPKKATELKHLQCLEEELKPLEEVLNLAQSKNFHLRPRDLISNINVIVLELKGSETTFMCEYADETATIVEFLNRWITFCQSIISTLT
B2: huIL2 Q22E (-E-) (ligand)
cytokine: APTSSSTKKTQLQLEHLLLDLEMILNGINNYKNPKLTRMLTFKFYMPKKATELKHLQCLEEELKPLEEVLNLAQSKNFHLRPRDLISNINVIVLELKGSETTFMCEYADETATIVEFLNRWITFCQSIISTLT
B3: huIL2 Q126H (--H) (ligand)
cytokine: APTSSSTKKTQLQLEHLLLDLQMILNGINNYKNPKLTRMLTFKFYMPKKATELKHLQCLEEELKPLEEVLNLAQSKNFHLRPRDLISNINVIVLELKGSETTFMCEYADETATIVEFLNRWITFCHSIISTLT
B4: huIL2 V91K (ligand)
cytokine: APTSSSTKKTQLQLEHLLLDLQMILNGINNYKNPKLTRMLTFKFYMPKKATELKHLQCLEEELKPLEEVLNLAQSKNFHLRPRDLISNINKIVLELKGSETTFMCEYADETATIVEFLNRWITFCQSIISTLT

Biological target: T1, human high affinity trimeric IL-2 …
Experiment: cell-based or functional assay

Row | Binder | pSTAT5 ratio YT CD25/YT, dilution factor 2, upper table | pSTAT5 ratio YT CD25/YT, dilution factor 4, upper table | pSTAT5 ratio YT CD25/YT, dilution factor 8, upper table | pSTAT5 ratio YT CD25/YT, dilution factor 16, upper table | pSTAT5 ratio YT CD25/YT, dilution factor 32, upper table | pSTAT5 ratio YT CD25/YT, dilution factor 64, upper table | pSTAT5 ratio YT CD25/YT, dilution factor 128, upper table
1 | B1 | 0.8 | 0.9 | 1 | 1 | 1.1 | 1.4 | 2.7
2 | B2 | 0.8 | 0.9 | 0.9 | 1 | 1 | 1.3 | 2
3 | B3 | 0.8 | 0.9 | 0.9 | 1 | 1.1 | 1.2 | 2
4 | B4 | 1 | 1.2 | 1.5 | 2.3 | 4.2 | 6.7 | 10.7

Reference: patent US20210275641A1 (SYNTHEKINE, published 2021)
